# Data from paper PMC4336329 (PLoS ONE, 2015).
# Hit rate of the full screen: of about 310,000 compounds, about 14,000 (4.5%) showed an effect of 50% or more. Effects have a minus sign here. Some of the results follow.
# Molecular target: human ether-à-go-go-related gene (hERG) potassium channel (human, UniProt Q12809)
# Assay: primary screen, population patch clamp on CHO cells stably expressing hERG
# 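Note: peak tail current of the secondary pulse compared with the same well before compound.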
# human ether-à-go-go-related gene (hERG) potassium channel, sequence (Q12809 whole entry, looked up): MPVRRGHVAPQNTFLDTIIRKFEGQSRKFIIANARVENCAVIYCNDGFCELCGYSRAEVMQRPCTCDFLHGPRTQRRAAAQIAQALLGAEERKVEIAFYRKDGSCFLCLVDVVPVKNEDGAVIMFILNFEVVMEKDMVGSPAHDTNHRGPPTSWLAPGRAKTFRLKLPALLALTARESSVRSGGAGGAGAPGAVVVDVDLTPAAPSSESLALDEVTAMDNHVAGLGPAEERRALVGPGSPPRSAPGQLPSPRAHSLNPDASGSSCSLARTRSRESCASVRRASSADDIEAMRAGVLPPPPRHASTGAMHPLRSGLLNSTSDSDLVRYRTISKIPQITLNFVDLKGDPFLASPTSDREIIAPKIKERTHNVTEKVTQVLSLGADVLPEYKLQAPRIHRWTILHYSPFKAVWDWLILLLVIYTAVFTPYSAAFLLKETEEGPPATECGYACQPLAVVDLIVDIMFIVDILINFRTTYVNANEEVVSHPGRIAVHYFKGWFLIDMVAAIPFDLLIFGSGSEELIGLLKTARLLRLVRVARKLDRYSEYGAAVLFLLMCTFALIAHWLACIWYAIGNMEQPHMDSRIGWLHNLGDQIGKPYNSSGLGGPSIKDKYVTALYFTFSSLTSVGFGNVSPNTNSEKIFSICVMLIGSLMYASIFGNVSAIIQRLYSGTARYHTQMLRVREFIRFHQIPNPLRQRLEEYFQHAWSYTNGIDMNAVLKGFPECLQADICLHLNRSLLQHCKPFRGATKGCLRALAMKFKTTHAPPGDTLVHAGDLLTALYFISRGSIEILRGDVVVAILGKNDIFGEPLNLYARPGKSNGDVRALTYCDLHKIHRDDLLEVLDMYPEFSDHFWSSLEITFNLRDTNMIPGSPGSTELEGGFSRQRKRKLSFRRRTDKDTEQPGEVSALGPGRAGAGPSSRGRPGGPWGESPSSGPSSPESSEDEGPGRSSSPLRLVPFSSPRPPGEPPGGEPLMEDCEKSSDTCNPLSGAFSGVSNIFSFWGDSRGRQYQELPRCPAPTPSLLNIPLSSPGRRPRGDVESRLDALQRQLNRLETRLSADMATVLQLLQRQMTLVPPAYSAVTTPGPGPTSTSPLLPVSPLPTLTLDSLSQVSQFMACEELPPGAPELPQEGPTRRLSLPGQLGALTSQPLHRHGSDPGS
row,SMILES,"hERG current change (%, negative = inhibition) at 10uM [%]"
1,COc1cc(C(=S)N2CCOCC2)cc(OC)c1OC(=O)c1cc([N+](=O)[O-])cc([N+](=O)[O-])c1,-6.98
2,CC(NC(=O)c1cccnc1)C(=O)[O-].[Na+] (stereo not shown),19.2
3,NS(=O)(=O)c1cc(C(=O)OCC(=O)NNC(=O)c2ccccc2)ccc1Cl,9.4
4,O=C(NCc1nc2ccccc2[nH]1)c1cc2ccccc2oc1=O,1.39
5,CC(=O)c1ccc(-n2nnnc2SCC(=O)NNC(=O)c2ccco2)cc1,1.72
6,COc1ccc(C2(c3ccc(OC)cc3)NC(=O)N(CC(=O)Nc3ccccc3C)C2=O)cc1,-18.8
7,CCc1ccc(C(=O)OCC(=O)N2CCCCCC2)cc1,-2.11
8,CC1Oc2ccccc2N(Cc2ccc(F)cc2)C1=O (stereo not shown),-20.8
9,COc1ccc(/C=C/C(=O)C2CC2)cc1COc1c(C)cccc1C,-10.5
10,Cc1sc2nc(COC(=O)c3ccc(Cl)c(N)c3)[nH]c(=O)c2c1C,4.79
11,O=C(NCc1cccs1)Nc1ccc2c(c1)OCO2,-4.71
12,CCOC(=O)N1CCN(CCC(=O)Nc2cc(OC)cc(OC)c2)CC1.Cl,-2.06
13,CC1(C(=O)O)CCC(C(=O)N2CCCCC2)C1(C)C (stereo not shown),18.9
14,Cc1cc(C)cc(N(CC(=O)NC2CCCCC2)C(=O)c2ccc(C)s2)c1,-7.26
15,Cc1ccc([N+](=O)[O-])c(OCC(=O)OCC(=O)c2ccccc2)c1,20.4
16,CCOCCOC(=O)C1=C(C)NC(=O)NC1c1ccc2c(c1)OCO2 (stereo not shown),13.6
17,O=C(NCCOc1ccc2ccccc2c1)c1cncc(Br)c1,3.79
18,CC1=C(C(=O)OCCBr)C(c2cccc3ccccc23)NC(=O)N1 (stereo not shown),17.5
19,CN(c1ccccc1)S(=O)(=O)c1cccc(NC(=O)CSc2nncs2)c1,-34.4
20,Cc1cccc(NC(=O)CSc2nnc(CSc3nc(C)cc(C)n3)n2Cc2ccco2)c1,16

row,SMILES,"hERG current change (%, negative = inhibition) at 10uM [%]"
1,O=C(N/N=C/c1cccc(Br)c1)c1ccc(Br)cc1,1.35
2,CNC(=S)N(C1=NCC(c2ccc([N+](=O)[O-])cc2)S1)c1ccccc1 (stereo not shown),-14.7
3,Cc1ccc2oc(C(=O)N(C)Cc3ccc(C)o3)c(C)c2c1,10.6
4,O=C(Cc1ccc(Br)cc1)Nc1ccccc1N1CCCC1,8.65
5,COC(=O)C1=C(c2cccc(OC)c2OC)C[C@@H]2CC[C@H]1N2C(=O)N1CCC(O)CC1,20.6
6,Cc1cccc(N/C(N)=N/c2nc(CSc3ccc(Cl)cc3)cc(=O)[nH]2)c1,19.2
7,Cc1ccc(SCCNS(=O)(=O)c2ccc(F)cc2)cc1,-15.6
8,Cc1ccc(-c2noc(CCC(=O)Nc3ccc4c(c3)OCO4)n2)cc1,3.68
9,O=C(COC(=O)c1ccc2c(c1)C(=O)N(Cc1ccncc1)C2=O)Nc1cccc2ccccc12,6.49
10,CC(=O)N(C)c1ccc(NC(=S)Nc2cccc3ccccc23)cc1,3.38
11,CCN(CC)CCN1C(=O)C(=O)/C(=C(/O)c2ccc(S(=O)(=O)N3CCOCC3)cc2)C1c1ccc(Cl)cc1 (stereo not shown),14.8
12,CCc1nc2ccc(Cc3ccc4nc(CC)[nH]c4c3)cc2[nH]1,18.5
13,CCN(CC)CCOc1ccccc1OC.O=C(O)C(=O)O,-11
14,Cc1ccc(Cn2c(SCC(=O)Nc3cc(C)on3)nc3ccccc3c2=O)cc1,1.29
15,Cc1cc(C)cc(N2C(=O)C3CCCN3C2=S)c1 (stereo not shown),16.7
16,COc1cccc(C(=O)Nc2nnc(S(=O)(=O)N3CCOCC3)s2)c1,1.51
17,CC(C)NCC(O)COc1c(F)cc(Br)cc1F.Cl (stereo not shown),-4.33
18,Cc1cc(C(=O)N2CCCC2C(=O)O)c(C)o1 (stereo not shown),7.91
19,CCc1ccc(OCC(=O)NCCOc2ccccc2)cc1,-8.08
20,Cc1cc(SCC(=O)NC(=O)NCc2ccco2)nc2c(C)cccc12,0.592

row,SMILES,"hERG current change (%, negative = inhibition) at 10uM [%]"
1,Cc1ccc(-c2nc(-c3cccnc3)no2)cc1,1.67
2,CCCC(=O)Nc1ccc(Cl)c(NC(=O)c2cccnc2)c1,12.2
3,Cc1ccc(-c2csc(NC(=O)Cc3cccs3)n2)cc1C,11.4
4,Cc1cccc(Nc2nc(-c3ccccn3)cs2)n1,12.9
5,Cc1cc(C(=O)NCCc2ccc(S(N)(=O)=O)cc2)no1,22.8
6,CC(=O)Nc1ccccc1NS(=O)(=O)c1ccccc1[N+](=O)[O-],20
7,Cc1cc(C)c(S(=O)(=O)NC2CC(C)(C)NC(C)(C)C2)cc1C,-0.3
8,COc1cc(C2SCC(=O)N2c2nnc(C34CC5CC(CC(C5)C3)C4)s2)cc(OC)c1OC (stereo not shown),-3.7
9,Cn1c(=O)c2c(ncn2CC(=O)NC2CCCCC2)n(C)c1=O,7.47
10,CC(C)(C)c1ccc(Oc2ccc(NC(=O)c3ccco3)cn2)cc1,-10.4
11,COc1ccc(NC(=O)CC(C)C)c([N+](=O)[O-])c1,-0.754
12,CC(C)(C)n1nnnc1C(c1cccc(C#N)c1)N1CCCc2ccccc21 (stereo not shown),-4.89
13,Clc1ccc(C2NCCc3[nH]cnc32)cc1 (stereo not shown),5.73
14,Cc1ccc(-c2csc(NC(=O)/C=C/c3ccco3)c2C(=O)O)cc1,13
15,COc1cc(OC)nc(Oc2ccccc2/C=N/O)n1,4.08
16,CCOC(=O)CC(=O)CSc1nc(C)cc(C)c1C#N,1.31
17,O=C(Nc1ccncc1)OCc1ccccc1,14.2
18,COC(=O)C1=C(c2ccc(F)cc2OCc2ccccc2)C[C@@H]2CC[C@H]1N2C(=O)NCc1ccc(F)cc1,-5.76
